Experimental data reported in the BET-seq Pho4 binding data (Le et al. 2018).
The list shows a part of the results. These are noisy estimates, calculated here from bound and input reads.

Biological target: T1, Pho4 (S. cerevisiae) (UniProt P07270)
T1 sequence: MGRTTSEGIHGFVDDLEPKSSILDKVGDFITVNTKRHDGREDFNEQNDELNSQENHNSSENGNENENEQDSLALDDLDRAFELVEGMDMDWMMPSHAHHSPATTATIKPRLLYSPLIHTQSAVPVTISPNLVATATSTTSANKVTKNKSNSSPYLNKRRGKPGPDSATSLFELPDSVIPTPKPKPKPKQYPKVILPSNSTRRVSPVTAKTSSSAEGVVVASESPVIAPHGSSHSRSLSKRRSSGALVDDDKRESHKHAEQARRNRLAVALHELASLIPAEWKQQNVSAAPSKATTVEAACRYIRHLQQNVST
Assay: relative binding free energy (BET-seq); higher = weaker binding
Details: reference: library average

Row | Sequence | relative binding free energy
1 | AATTTCACGTGCTTTT | 0.18 kcal/mol
2 | TACTTCACGTGTATGT | 0.16 kcal/mol
3 | TGAGGCACGTGCTGAT | -0.22 kcal/mol
4 | TTGGTCACGTGCGGCA | -0.03 kcal/mol
5 | CTTTACACGTGGGTTA | 0.08 kcal/mol
6 | GGTACCACGTGCGTGG | -0.15 kcal/mol
7 | AGAGCCACGTGATGGG | -0.01 kcal/mol
8 | TGGCCCACGTGCGTGG | -0.2 kcal/mol
9 | GATGGCACGTGAAATA | 0.4 kcal/mol
10 | GTGAGCACGTGGTTTA | -0.19 kcal/mol
11 | GAAGACACGTGGGGGG | -0.05 kcal/mol
12 | CTGGCCACGTGACGGG | 0.18 kcal/mol
13 | TGTGGCACGTGAGCGG | 0.09 kcal/mol
14 | GATTGCACGTGTAAGT | 0.27 kcal/mol
15 | GTTGCCACGTGGTAGG | -0.13 kcal/mol
16 | GTGGTCACGTGCAAAT | 0.21 kcal/mol
17 | AGGTGCACGTGAGGCA | 0.1 kcal/mol
18 | TGAGACACGTGAGGAT | 0.16 kcal/mol
19 | TACGTCACGTGTTGGG | 0.13 kcal/mol
20 | ATTTACACGTGGGGCA | -0.02 kcal/mol
21 | GAATTCACGTGGGTCT | 0.33 kcal/mol
22 | TGTCTCACGTGCTAGG | 0.17 kcal/mol
23 | GGTTTCACGTGCGATA | 0.26 kcal/mol

Row | Sequence | relative binding free energy
24 | AGAAGCACGTGTGGGC | 0.07 kcal/mol
25 | ATATCCACGTGTAGTT | -0.05 kcal/mol
26 | AGTGTCACGTGGAATG | 0.07 kcal/mol
27 | AGGTTCACGTGTTGAT | 0.17 kcal/mol
28 | GTTAGCACGTGGATTT | -0.01 kcal/mol
29 | TGAAGCACGTGAGAGT | 0.2 kcal/mol
30 | GGGGGCACGTGCGTAC | -0.18 kcal/mol
31 | TTACGCACGTGATTTT | -0.04 kcal/mol
32 | GGTATCACGTGTGGAA | 0.18 kcal/mol
33 | GGAGGCACGTGGGAGT | -0.13 kcal/mol
34 | TGGGGCACGTGGATTC | -0.03 kcal/mol
35 | AGTGACACGTGAAGTG | 0.02 kcal/mol
36 | GCAATCACGTGGAGGG | 0.05 kcal/mol
37 | TATATCACGTGGTGCG | -0.02 kcal/mol
38 | GGCGGCACGTGGTTAA | -0.09 kcal/mol
39 | AGATGCACGTGTACGG | -0.04 kcal/mol
40 | AATATCACGTGTGGTA | 0.08 kcal/mol
41 | GTTATCACGTGGGGAT | 0.11 kcal/mol
42 | AGTGGCACGTGAAGGG | 0.14 kcal/mol
43 | CGGAACACGTGTAGGG | 0.02 kcal/mol
44 | TGAGTCACGTGGGAGA | 0.15 kcal/mol
45 | AATGTCACGTGGGGCC | -0.03 kcal/mol
46 | TTAAGCACGTGATTGT | -0.01 kcal/mol

Row | Sequence | relative binding free energy
47 | GAGGACACGTGCGGAG | 0.1 kcal/mol
48 | GGAATCACGTGTTGTA | 0.23 kcal/mol
49 | GGTTACACGTGTACGA | 0.21 kcal/mol
50 | ACTGTCACGTGTATGA | 0.19 kcal/mol
51 | ATGATCACGTGTCTGG | 0.05 kcal/mol
52 | TTAGGCACGTGGTCTT | -0.03 kcal/mol
53 | TTTACCACGTGTGCGG | 0.03 kcal/mol
54 | TGTTTCACGTGATTAG | 0.37 kcal/mol
55 | GAAATCACGTGGTTGT | 0.27 kcal/mol
56 | AAGGTCACGTGAGGTG | 0.36 kcal/mol
57 | AAGTGCACGTGTCTGT | -0.12 kcal/mol
58 | AGGGCCACGTGGTGCG | -0.2 kcal/mol
59 | GGTGTCACGTGGATAC | 0.26 kcal/mol
60 | TGAGTCACGTGGGCTG | 0.06 kcal/mol
61 | AGCGGCACGTGTAGTT | 0.01 kcal/mol
62 | ACGTGCACGTGATGGT | -0.12 kcal/mol
63 | ATTATCACGTGCTGTT | -0.03 kcal/mol
64 | TATTACACGTGAGGGG | 0.33 kcal/mol
65 | CATTTCACGTGATATT | 0.25 kcal/mol
66 | TTGAGCACGTGTGGGG | -0.07 kcal/mol
67 | TTTGGCACGTGGTCCG | -0.24 kcal/mol
68 | CTAATCACGTGTGGGC | 0.33 kcal/mol
69 | GGGGACACGTGATTTG | 0.26 kcal/mol

Row | Sequence | relative binding free energy
70 | TGACTCACGTGAGGTT | 0.39 kcal/mol
71 | TTTTTCACGTGTAAGG | 0.3 kcal/mol
72 | AGTGTCACGTGCTGCT | 0.1 kcal/mol
73 | TTATGCACGTGTCTTG | -0.1 kcal/mol
74 | GGTAACACGTGTGGGT | 0.04 kcal/mol
75 | AGGGACACGTGTGGAT | -0.03 kcal/mol
76 | TGTGACACGTGGGTCG | -0.22 kcal/mol
77 | TTGGCCACGTGCGGTA | -0.22 kcal/mol
78 | CAGAACACGTGTTGGT | -0.03 kcal/mol
79 | GTTGTCACGTGGGTGA | 0.04 kcal/mol
80 | TGAAGCACGTGCTAGG | -0.23 kcal/mol
81 | TGGAGCACGTGTAAGA | 0.04 kcal/mol
82 | GATTGCACGTGTCGGA | 0.17 kcal/mol
83 | GTTTGCACGTGATTAG | 0.23 kcal/mol
84 | GTGCACACGTGCGTGG | -0.15 kcal/mol
85 | TAGGTCACGTGATTGC | 0.06 kcal/mol
86 | GTGTACACGTGGTAAT | 0.05 kcal/mol
87 | AATTGCACGTGCGGTT | 0.06 kcal/mol
88 | GGTTTCACGTGTGATA | 0.21 kcal/mol
89 | TGAAGCACGTGTAGGA | 0.01 kcal/mol
90 | TGAACCACGTGTGTAT | 0.16 kcal/mol
91 | TTGGTCACGTGGGAGC | -0.02 kcal/mol
92 | GGTAACACGTGGGAAT | 0.14 kcal/mol

Row | Sequence | relative binding free energy
93 | CGTTGCACGTGAGCGG | 0.18 kcal/mol
94 | CCGGTCACGTGTTGGT | 0.14 kcal/mol
95 | TACGTCACGTGGGATA | 0.11 kcal/mol
96 | TCTCGCACGTGTGTGT | -0.07 kcal/mol
97 | TTGGGCACGTGAGCGT | 0.15 kcal/mol
98 | TAATGCACGTGAAGTG | 0.25 kcal/mol
99 | TGCGACACGTGGTAAG | 0.03 kcal/mol
100 | GATGGCACGTGTTGTT | 0.08 kcal/mol
101 | GAGATCACGTGTTGAG | 0.21 kcal/mol
102 | CTATTCACGTGGTCGG | 0.18 kcal/mol
103 | GAATTCACGTGGAGGT | 0.32 kcal/mol
104 | AATTACACGTGAAGGT | 0.29 kcal/mol
105 | AAAGTCACGTGATGAG | 0.21 kcal/mol
106 | GATGGCACGTGATCGG | -0.09 kcal/mol
107 | GTTCGCACGTGTATGA | 0.04 kcal/mol
108 | TAGCTCACGTGGCGTT | 0.24 kcal/mol
109 | ATTAACACGTGTCGTT | 0.1 kcal/mol
110 | GTATTCACGTGGCCTT | 0.2 kcal/mol
111 | GTGATCACGTGTATAT | 0.2 kcal/mol
112 | CTGTTCACGTGGAGGG | 0.35 kcal/mol
113 | CGTTACACGTGATTGT | 0.27 kcal/mol
114 | CTAGGCACGTGAAGGG | 0.11 kcal/mol
115 | TGTATCACGTGATATA | 0.15 kcal/mol
